# The list shows a part of the results. These are enrichments in a pooled selection; single values are uncertain. Each score is taken over the longer molecules that contain the sequence shown.
# How the values were obtained:
# Experiment in all cases: 6-mer SELEX enrichment z-score vs GST control; IMP3 is the RNA-binding protein IGF2BP3; higher = more enriched by binding
# [1] = tested on: IMP3 KH1-4; details: construct: KH1-4 (164-579); SELEX round: R4
# Method: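 SELEX-seq with GST-tagged IMP3 KH1-4 (Pro164-Lys579) and an N40 RNA pool, round 4. 6-mer z-score of sequence-tag enrichment normalised to the corresponding GST SELEX round; RNA k-mers written as DNA (T for U).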
# [2] = tested on: IMP3 RRM1-2; details: construct: RRM1-2 (1-163); SELEX round: R2
# Chain of IMP3 RRM1-2 (chain, as listed by the source): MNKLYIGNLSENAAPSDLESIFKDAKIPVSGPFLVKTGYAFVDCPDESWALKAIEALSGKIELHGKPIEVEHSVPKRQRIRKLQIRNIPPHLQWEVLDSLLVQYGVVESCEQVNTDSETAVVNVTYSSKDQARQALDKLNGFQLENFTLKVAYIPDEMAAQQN
# Method: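 SELEX-seq with GST-tagged IMP3 RRM1-2 (Met1-Asn163) and an N40 RNA pool, round 2. 6-mer enrichment z-score normalised to GST SELEX. RNA written as DNA (T = U).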
# [3] = target: IMP3 full-length (UniProt O00425); details: construct: FL IMP3 (1-579); SELEX round: R4
# Chain of UniProt O00425 (O00425 whole entry): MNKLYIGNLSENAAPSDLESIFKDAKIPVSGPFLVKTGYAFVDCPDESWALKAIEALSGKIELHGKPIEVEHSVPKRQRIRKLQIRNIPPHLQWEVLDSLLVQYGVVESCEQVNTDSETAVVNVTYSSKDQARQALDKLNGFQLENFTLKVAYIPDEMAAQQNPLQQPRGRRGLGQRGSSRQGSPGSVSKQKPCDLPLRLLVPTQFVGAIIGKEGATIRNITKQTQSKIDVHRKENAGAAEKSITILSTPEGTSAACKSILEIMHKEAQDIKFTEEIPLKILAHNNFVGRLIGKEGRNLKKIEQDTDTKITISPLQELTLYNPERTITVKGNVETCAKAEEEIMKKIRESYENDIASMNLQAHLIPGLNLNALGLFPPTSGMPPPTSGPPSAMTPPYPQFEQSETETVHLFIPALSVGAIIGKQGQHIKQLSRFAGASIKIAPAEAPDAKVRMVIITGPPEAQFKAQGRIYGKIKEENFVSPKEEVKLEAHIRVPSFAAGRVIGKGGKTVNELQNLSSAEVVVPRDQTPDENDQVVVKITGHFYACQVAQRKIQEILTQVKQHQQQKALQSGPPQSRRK
# Method: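 SELEX-seq with GST-tagged full-length IMP3 and an N40 RNA pool, round 4. Each 6-mer is scored as an enrichment z-score of sequence tags containing it, normalised to the matching GST SELEX round. RNA written as DNA (T = U).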
# [4] = tested on: IMP3 KH1-2; details: construct: KH1-2 (164-376); SELEX round: R4
# Chain of IMP3 KH1-2 (chain, as listed by the source): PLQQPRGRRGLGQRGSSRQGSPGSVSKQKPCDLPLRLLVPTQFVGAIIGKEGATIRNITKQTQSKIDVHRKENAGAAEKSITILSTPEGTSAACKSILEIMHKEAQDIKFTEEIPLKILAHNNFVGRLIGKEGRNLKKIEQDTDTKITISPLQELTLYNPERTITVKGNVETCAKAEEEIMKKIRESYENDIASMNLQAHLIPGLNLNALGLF
# Method: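 SELEX-seq with GST-tagged IMP3 KH1-2 (Pro164-Phe376) and an N40 RNA pool, round 4 (stringent 300/600 mM KCl washes). 6-mer z-score of sequence-tag enrichment normalised to the corresponding GST SELEX round; RNA k-mers written as DNA (T for U).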
# [5] = tested on: IMP3 KH3-4; details: construct: KH3-4 (377-579); SELEX round: R4
# Chain of IMP3 KH3-4 (chain, as listed by the source): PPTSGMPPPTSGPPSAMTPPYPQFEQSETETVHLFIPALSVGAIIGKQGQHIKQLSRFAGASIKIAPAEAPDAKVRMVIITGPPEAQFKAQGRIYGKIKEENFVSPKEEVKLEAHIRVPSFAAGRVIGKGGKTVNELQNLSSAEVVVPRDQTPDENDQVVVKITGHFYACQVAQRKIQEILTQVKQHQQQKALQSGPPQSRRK
# Method: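 SELEX-seq with GST-tagged IMP3 KH3-4 (Pro377-Lys579) and an N40 RNA pool, round 4. 6-mer z-score of sequence-tag enrichment normalised to the corresponding GST SELEX round; RNA k-mers written as DNA (T for U).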
# Chain of IMP3 KH1-4 (chain, as listed by the source): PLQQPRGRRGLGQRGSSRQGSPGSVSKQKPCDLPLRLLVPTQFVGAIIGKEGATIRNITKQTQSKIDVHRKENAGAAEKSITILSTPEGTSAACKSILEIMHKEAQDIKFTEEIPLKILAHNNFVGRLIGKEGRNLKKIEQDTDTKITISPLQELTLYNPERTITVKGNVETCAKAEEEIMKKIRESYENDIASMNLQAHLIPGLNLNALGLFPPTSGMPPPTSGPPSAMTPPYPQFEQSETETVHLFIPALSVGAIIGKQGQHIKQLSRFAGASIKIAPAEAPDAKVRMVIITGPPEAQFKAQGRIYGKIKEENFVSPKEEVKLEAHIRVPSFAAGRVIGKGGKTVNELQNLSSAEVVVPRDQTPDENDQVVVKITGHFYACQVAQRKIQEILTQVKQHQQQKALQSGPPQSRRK
Sequence,6-mer SELEX enrichment z-score [1],6-mer SELEX enrichment z-score [2],6-mer SELEX enrichment z-score [3],6-mer SELEX enrichment z-score [4],6-mer SELEX enrichment z-score [5]
TGGTCT,-0.056,0.484,0.124,-0.003,0.127
GTACGA,-0.946,-0.599,-0.573,-1.07,-0.96
AAGGCC,-0.132,-0.672,-0.137,-0.062,0.118
TTCTTA,0.581,0.365,0.235,0.574,0.689
TAACGA,-0.595,-1.25,-1.21,-0.541,-0.045
ATACGA,0.705,-0.792,-0.089,0.484,0.523
GCACAA,1.9,1.07,2.28,1.57,1.43
CACTCC,0.045,0.416,-0.114,0.137,-0.858
GTGCAC,0.585,0.17,0.635,0.297,0.156
TTCTGG,0.01,0.413,0.098,0.11,0.164
AGGGGG,1.55,0.026,0.51,2.34,1.67
GACCAA,-1.52,-0.661,-1.66,-1.45,-1.75
CAGCGG,0.339,-0.002,1.2,0.226,0.382
CAGAAG,-0.082,-0.237,0.142,-0.021,0.013
TGTCTA,-0.146,0.107,-0.122,-0.191,-0.055
GGTATG,0.015,0.27,0.083,0.028,0.207
GGACAG,1.26,-0.556,0.82,1.1,0.744
CCATCC,-0.017,0.042,-0.048,0.011,-0.956
TCCCCT,0.097,-0.22,-0.462,0.084,-0.512
TTCAAA,0.131,0.487,0.241,0.407,0.172

Sequence,6-mer SELEX enrichment z-score [1],6-mer SELEX enrichment z-score [2],6-mer SELEX enrichment z-score [3],6-mer SELEX enrichment z-score [4],6-mer SELEX enrichment z-score [5]
GTTTTA,0.133,0.169,-0.081,0.19,0.474
GAGGAG,0.813,-0.581,0.313,0.923,0.793
CACTAT,1.98,0.904,0.77,1.75,1.51
CTCGCC,-0.576,0.021,-0.063,-0.369,-0.779
CTATGT,0.269,0.235,-0.069,0.133,0.305
TGGTTC,-0.141,0.493,0.149,-0.085,0.042
TGTAAC,0.07,-0.392,-0.478,-0.129,0.066
GGGTCC,-0.152,0.106,0.297,0.042,-0.093
GGGGCG,0.837,0.235,0.739,1.51,1.35
ACAAGC,-0.861,0.558,-0.083,-0.874,-1.03
TCTTCC,0.489,0.241,-0.129,0.426,0.002
ACGATC,-0.625,-0.121,-0.27,-0.67,-0.806
ATTGCA,1.4,0.192,0.564,1.21,1.13
CGAACA,-0.899,0.47,0.52,-0.715,-1.06
ATATAC,2.1,0.064,0.465,2.18,2.45
TAATGA,1.01,-0.832,-0.628,0.703,1.91
GCCCCC,1,-0.783,0.081,1.87,-0.309
CTATGA,0.342,-0.435,-0.584,0.166,0.464
TCCAGC,-0.692,0.167,-0.183,-0.692,-0.971
TTGTTG,-0.033,0.422,-0.142,-0.071,0.139

Sequence,6-mer SELEX enrichment z-score [1],6-mer SELEX enrichment z-score [2],6-mer SELEX enrichment z-score [3],6-mer SELEX enrichment z-score [4],6-mer SELEX enrichment z-score [5]
CATTTC,1.13,1.26,1.37,1.24,0.716
CCCGTT,-0.242,-0.195,-0.194,-0.161,-0.467
GCAGAA,0.053,-0.104,0.31,0.057,0.184
CAACGA,-1.69,-0.914,-1.15,-1.8,-1.77
AGCTCG,-0.622,0.208,0.173,-0.545,-0.462
GCCTCT,-0.579,0.141,-0.123,-0.439,-0.463
CTGATA,0.482,-0.414,-0.195,0.506,0.569
CGCACA,1.7,1.58,2.21,1.77,0.744
CTGCAA,0.135,-0.227,0.07,0.292,-0.197
GACGAA,-1.01,-1.82,-1.28,-0.999,-0.792
AGGACA,1.53,-0.144,0.634,1.13,1.09
CCGGGA,-0.566,-1.04,-0.302,-0.351,-0.552
CTGGGG,0.047,0.182,0.215,0.375,0.158
ATGGGC,-0.202,0.217,0.338,-0.174,0.274
ACTAAG,0.158,0.034,-0.364,-0.02,0.326
CGCCCT,-0.552,-0.295,-0.45,-0.431,-0.793
CATTAC,1.31,1.82,1.4,1.49,1.05
TTCCCG,-0.544,-0.186,-0.647,-0.517,-0.826
TTGTGT,0.133,0.408,-0.051,0.064,0.262
AAAGTA,-0.404,-1.12,-1.07,-0.646,0.042

# — the supplement of paper PMC6531468
